# Measured values: the supplement of paper PMC4604168 (melanoma cell lines)
# The other results are listed elsewhere or left out. Single values are uncertain, as repeats are few or missing.
# Tested on: IPC-298
# Assay: cell count relative to DMSO control; melanoma cells; higher = more viable cells
# Conditions: library dose: low library concentration; 72 h
# 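Note: cell number obtained by counting DAPI-stained nuclei in high-throughput microscope images with image analysis software, screen run in 1,536-well plates.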
row,SMILES,cell count [%]
1,"C[C@]12O[C@H](C[C@]1(O)CO)n1c3ccccc3c3c4c(c5c6ccccc6n2c5c31)CNC4=O [Lestaurtinib] + OCc1c[nH]c2ccccc12 [Indole-3-carbinol] (first compound 0.004 µM, partner dose 0.8 µM)",100
2,"C[C@]12O[C@H](C[C@]1(O)CO)n1c3ccccc3c3c4c(c5c6ccccc6n2c5c31)CNC4=O [Lestaurtinib] + CO[C@H]1C[C@@H]2CC[C@@H](C)[C@@](O)(O2)C(=O)C(=O)N2CCCC[C@H]2C(=O)O[C@H]([C@H](C)C[C@@H]2CC[C@@H](OCCO)[C@H](OC)C2)CC(=O)[C@H](C)/C=C(\C)[C@@H](O)[C@@H](OC)C(=O)[C@H](C)C[C@H](C)/C=C/C=C/C=C/1C [everolimus] (first compound 0.004 µM, partner dose 0.02 µM)",74.2
3,"C[C@]12O[C@H](C[C@]1(O)CO)n1c3ccccc3c3c4c(c5c6ccccc6n2c5c31)CNC4=O [Lestaurtinib] + Cn1c(=O)n(-c2ccc(C(C)(C)C#N)cc2)c2c3cc(-c4cnc5ccccc5c4)ccc3ncc21 [NVP-BEZ235] (first compound 0.004 µM, partner dose 0.004 µM)",87.2
4,"C[C@]12O[C@H](C[C@]1(O)CO)n1c3ccccc3c3c4c(c5c6ccccc6n2c5c31)CNC4=O [Lestaurtinib] + Nc1ccn([C@@H]2O[C@H](CO)[C@@H](O)C2(F)F)c(=O)n1 [gemcitabine] (first compound 0.004 µM, partner dose 0.0004 µM)",88.6
5,"Cn1cc(C2=C(c3cn(C4CCN(Cc5ccccn5)CC4)c4ccccc34)C(=O)NC2=O)c2ccccc21 [Enzastaurin] + CO[C@H]1C[C@@H]2CC[C@@H](C)[C@@](O)(O2)C(=O)C(=O)N2CCCC[C@H]2C(=O)O[C@H]([C@H](C)C[C@@H]2CC[C@@H](OCCO)[C@H](OC)C2)CC(=O)[C@H](C)/C=C(\C)[C@@H](O)[C@@H](OC)C(=O)[C@H](C)C[C@H](C)/C=C/C=C/C=C/1C [everolimus] (first compound 0.8 µM, partner dose 0.02 µM)",92.8
6,"C[C@]12O[C@H](C[C@]1(O)CO)n1c3ccccc3c3c4c(c5c6ccccc6n2c5c31)CNC4=O [Lestaurtinib] + Nc1cccc2c1CN(C1CCC(=O)NC1=O)C2=O [lenalidomide] (first compound 0.004 µM, partner dose 1 µM)",104
7,"C[C@]12O[C@H](C[C@]1(O)CO)n1c3ccccc3c3c4c(c5c6ccccc6n2c5c31)CNC4=O [Lestaurtinib] + CN(c1ncccc1CNc1nc(Nc2ccc3c(c2)CC(=O)N3)ncc1C(F)(F)F)S(C)(=O)=O [PF562271] (first compound 0.004 µM, partner dose 0.08 µM)",89.5
8,"C[C@]12O[C@H](C[C@]1(O)CO)n1c3ccccc3c3c4c(c5c6ccccc6n2c5c31)CNC4=O [Lestaurtinib] + CC(=O)O[C@@]12CO[C@@H]1C[C@H](O)[C@@]1(C)C(=O)[C@H](O)C3=C(C)[C@@H](OC(=O)[C@H](O)[C@@H](NC(=O)OC(C)(C)C)c4ccccc4)C[C@@](O)([C@@H](OC(=O)c4ccccc4)[C@H]21)C3(C)C [Docetaxel] (first compound 0.004 µM, partner dose 0.0001 µM)",82.5
9,"C[As](C)SC[C@H](NC(=O)CC[C@H](N)C(=O)O)C(=O)NCC(=O)O [Darinaparsin] + O=C(Nc1ccccc1)c1cc([N+](=O)[O-])ccc1Cl [GW9662] (first compound 0.4 µM, partner dose 2 µM)",102
10,"C[As](C)SC[C@H](NC(=O)CC[C@H](N)C(=O)O)C(=O)NCC(=O)O [Darinaparsin] + Cc1cc(SCc2sc(-c3ccc(C(F)(F)F)c(F)c3)nc2C)ccc1OCC(=O)O [GW0742] (first compound 0.4 µM, partner dose 2 µM)",109
11,"C[C@]12O[C@H](C[C@]1(O)CO)n1c3ccccc3c3c4c(c5c6ccccc6n2c5c31)CNC4=O [Lestaurtinib] + CCCS(=O)(=O)Nc1ccc(F)c(C(=O)c2c[nH]c3ncc(Cl)cc23)c1F [PLX4720] (first compound 0.004 µM, partner dose 0.08 µM)",93
12,"C[C@]12O[C@H](C[C@]1(O)CO)n1c3ccccc3c3c4c(c5c6ccccc6n2c5c31)CNC4=O [Lestaurtinib] + O=C(O)[C@@H]1[O][Sb](=[O])([O][Sb]2(=[O])[O][C@H]([C@H](O)CO)[C@H](O)[C@H](C(=O)O)[O]2)[O][C@H]([C@H](O)CO)[C@@H]1O [stibogluconate] (first compound 0.004 µM, partner dose 2 µM)",95.7
13,"C[C@]12O[C@H](C[C@]1(O)CO)n1c3ccccc3c3c4c(c5c6ccccc6n2c5c31)CNC4=O [Lestaurtinib] + O=C(O)c1ccc2c(c1)nc(Nc1cccc(Cl)c1)c1ccncc12 [CX4945] (first compound 0.004 µM, partner dose 0.4 µM)",95.4
14,"C[As](C)SC[C@H](NC(=O)CC[C@H](N)C(=O)O)C(=O)NCC(=O)O [Darinaparsin] + O=C1NC(=O)/C(=C/c2ccc(-c3ccc(F)cc3O)o2)S1 [AS252424] (first compound 0.4 µM, partner dose 1 µM)",103
15,"C[C@]12O[C@H](C[C@]1(O)CO)n1c3ccccc3c3c4c(c5c6ccccc6n2c5c31)CNC4=O [Lestaurtinib] + CC(C)C[C@H](NC(=O)[C@H](Cc1ccccc1)NC(=O)c1cnccn1)B(O)O [Bortezomib] (first compound 0.004 µM, partner dose 0.001 µM)",83.4
16,"C[C@]12O[C@H](C[C@]1(O)CO)n1c3ccccc3c3c4c(c5c6ccccc6n2c5c31)CNC4=O [Lestaurtinib] + N.N.[Cl][Pt][Cl] [cisplatin] (first compound 0.004 µM, partner dose 1.6 µM)",95
17,"C[C@]12O[C@H](C[C@]1(O)CO)n1c3ccccc3c3c4c(c5c6ccccc6n2c5c31)CNC4=O [Lestaurtinib] + NC1(c2ccc(-c3nc4ccn5c(=O)[nH]nc5c4cc3-c3ccccc3)cc2)CCC1 [MK2206] (first compound 0.004 µM, partner dose 0.4 µM)",98.5
18,"C[C@]12O[C@H](C[C@]1(O)CO)n1c3ccccc3c3c4c(c5c6ccccc6n2c5c31)CNC4=O [Lestaurtinib] + C[C@]1(O)C[C@@H](c2nc(-c3ccc4ccc(-c5ccccc5)nc4c3)c3c(N)nccn32)C1 [OSI906] (first compound 0.004 µM, partner dose 0.4 µM)",83.3
19,"C[C@]12O[C@H](C[C@]1(O)CO)n1c3ccccc3c3c4c(c5c6ccccc6n2c5c31)CNC4=O [Lestaurtinib] + C=C(c1ccc(C(=O)O)cc1)c1cc2c(cc1C)C(C)(C)CCC2(C)C [Bexarotene] (first compound 0.004 µM, partner dose 2 µM)",103
20,"C[C@]12O[C@H](C[C@]1(O)CO)n1c3ccccc3c3c4c(c5c6ccccc6n2c5c31)CNC4=O [Lestaurtinib] + CN1CCN(c2ccc3nc(-c4c(N)c5c(F)cccc5[nH]c4=O)[nH]c3c2)CC1 [Dovitinib] (first compound 0.004 µM, partner dose 0.1 µM)",91.5
21,"C[C@]12O[C@H](C[C@]1(O)CO)n1c3ccccc3c3c4c(c5c6ccccc6n2c5c31)CNC4=O [Lestaurtinib] + CCCCCCCCc1ccc(CCC(N)(CO)CO)cc1 [fingolimod] (first compound 0.004 µM, partner dose 2 µM)",95.5
22,"C[C@]12O[C@H](C[C@]1(O)CO)n1c3ccccc3c3c4c(c5c6ccccc6n2c5c31)CNC4=O [Lestaurtinib] + CNC(=O)c1cc(Oc2ccc(NC(=O)Nc3ccc(Cl)c(C(F)(F)F)c3)cc2)ccn1 [sorafenib] (first compound 0.004 µM, partner dose 0.4 µM)",89.2
23,"N.N.[Cl][Pt][Cl] [cisplatin] + CO[C@H]1C[C@@H]2CC[C@@H](C)[C@@](O)(O2)C(=O)C(=O)N2CCCC[C@H]2C(=O)O[C@H]([C@H](C)C[C@@H]2CC[C@@H](OCCO)[C@H](OC)C2)CC(=O)[C@H](C)/C=C(\C)[C@@H](O)[C@@H](OC)C(=O)[C@H](C)C[C@H](C)/C=C/C=C/C=C/1C [everolimus] (first compound 1.6 µM, partner dose 0.02 µM)",66.1
24,"C[C@]12O[C@H](C[C@]1(O)CO)n1c3ccccc3c3c4c(c5c6ccccc6n2c5c31)CNC4=O [Lestaurtinib] + C=CCNC1=C2C[C@@H](C)C[C@H](OC)[C@H](O)[C@@H](C)/C=C(\C)[C@H](OC(N)=O)[C@@H](OC)/C=C\C=C(/C)C(=O)NC(=CC1=O)C2=O [Tanespimycin] (first compound 0.004 µM, partner dose 0.002 µM)",90.3
25,"C[C@]12O[C@H](C[C@]1(O)CO)n1c3ccccc3c3c4c(c5c6ccccc6n2c5c31)CNC4=O [Lestaurtinib] + COc1ccc(Cl)c(Nc2nc3ccccc3nc2NS(=O)(=O)c2cccc(NC(=O)C(C)(C)N)c2)c1 [XL147] (first compound 0.004 µM, partner dose 0.8 µM)",92.9
